The source of these data is CN116284426A (SUNSHINE GUOJIAN PHARMACEUTICAL SHANGHAI CO LTD, dated 2023).

As usually defined, the EC50 is the concentration at which the effect is half-maximal.

The target in one assay is T1, CD3ε-ECD-his (UniProt P07766 23-126).
T1 construct: extracellular domain; also called CD3ε蛋白
As to the kind of experiment: ELISA, CD3ε-ECD-his coated at 1 ug/mL, anti-human IgG Fab HRP (Table 14).

Assay [1] concerns the target T2, GUCY2C-His蛋白 (human GUCY2C extracellular region with C-terminal 6xHis) (human, UniProt P25092 part only).
T2 construct: extracellular domain; Made in HEK-293F with an unspecified N-terminal signal peptide; also called 人GUCY2C-His蛋白
As to the kind of experiment: ELISA, GUCY2C-His coated, anti-human IgG Fab HRP (Table 9). (An ELISA detects its analyte on a solid surface through an enzyme-linked reagent.)

For assay [2], the target named is T3, GUCY2C-Fc蛋白 (human GUCY2C extracellular region fused to human IgG1 Fc) (human, UniProt P25092 part only).
T3 construct: extracellular domain; Made in HEK-293F with an unspecified N-terminal signal peptide; also called 人GUCY2C-Fc蛋白; not shown: human IgG1 Fc at the C-terminus in place of the 6xHis tag
Nature of the assay: ELISA, GUCY2C-Fc coated, anti-human IgG Fab HRP (Table 11).

In assay [3] the target is T2, GUCY2C-His蛋白 (human GUCY2C …). Nature of the assay: ELISA, GUCY2C-His coated, anti-human IgG Fab HRP (Table 10).
The target of assay [4] is GUCY2C on tumour cells (CW2, CW2-GCC#1, T84) (human, UniProt P25092 24-1073). Nature of the assay: cell-based or functional assay.
In assay [5] the target is T3, GUCY2C-Fc蛋白 (human GUCY2C extracellular …). Nature of the assay: ELISA, GUCY2C-Fc coated, anti-human IgG Fab HRP (Table 12).

Chain of CD3ε-ECD-his (P07766 other isoform, or with tags, fused parts or gaps): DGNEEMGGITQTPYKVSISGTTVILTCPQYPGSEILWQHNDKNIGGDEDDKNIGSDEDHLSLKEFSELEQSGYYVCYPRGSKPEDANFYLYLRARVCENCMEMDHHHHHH

B1: 10D7CH1-SP4VHL (bispecific antibody)
heavy: QVQLVESGGGVVQPGRSLRLSCAVSGFTFSNYGVHWVRQAPGKGLEWLGVIWSGGRKDYNAAFISRLTISKDNSKSTVYLQMNSLRAEDTAVYYCARHGTYPYWYFALWGQGTLVTVSSASTKGPSVFPLAPSSKSTSGGTAALGCLVKDYFPEPVTVSWNSGALTSGVHTFPAVLQSSGLYSLSSVVTVPSSSLGTQTYICNVNHKPSNTKVDKKVEPKSCGGGGSGGGGSGGGGSEVQLVESGGGLVQPGGSLRLSCAASGFTFNTYAMNWVRQAPGKGLEWVARIRSKYNNYATYYADSVKDRFTISRDDSKNTLYLQMNSLRAEDTAVYYCVRHGNFGNSYVSWFAYWGQGTLVTVSSGGGGSGGGGSGGGGSGGGGSQAVVTQEPSLTVSPGGTVTLTCRSSTGAVTTSNYANWVQQKPGQAPRGLIGGTNKRAPGVPARFSGSLLGGKAALTLSGAQPEDEAEYYCALWYSNLWVFGQGTKVEIKGGGS[letters of human IgG1 Fc left out]
light: DIQMTQSPSSLSASVGDRVTITCRASQDISNYLNWYQQKPGKTFKLLVYYTSRLQSGVPSRFSGSGSGTDYTFTISSLQPEDIATYFCQQGKTLPFSFGQGTKVEIKRTVAAPSVFIFPPSDEQLKSGTASVVCLLNNFYPREAKVQWKVDNALQSGNSQESVTEQDSKDSTYSLSSTLTLSKADYEKHKVYACEVTHQGLSSPVTKSFNRGEC
notes: also called 结构7
Turning to B1, the EC50 in the assay with CD3ε-ECD-his was 0.35 nM; in assay [1], 1.23 nM; in assay [2] it was 0.29 nM; in assay [3], 1.18 nM; in assay [5], 0.43 nM. Besides, the “IC50 of T-cell-mediated killing of CW2 cells (CTG, E:T 5:1, 96 h)” value in assay [4] was determined as 0.02 nM.
